Experimental data: the supplement of paper PMC4604168 (melanoma cell lines)
The list shows a part of the results. Most values come without repeats; read them as rough.

Assays:
Assay in all cases: cell count relative to DMSO control; melanoma cells; higher = more viable cells
Conditions in all cases: library dose: standard library concentration; 72 h
[1] = test system: 501Mel
[2] = test system: A101D
[3] = test system: A2058
[4] = test system: A375
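Further: cells treated in 1,536-well plates, then fixed and DAPI-stained, with nuclei counted from automated high-throughput microscope images.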

For `COc1cc2c(Oc3ccc4[nH]c(C)cc4c3F)ncnc2cc1OCCCN1CCCC1` [cediranib] + COc1cc(N2CCC(N3CCN(C)CC3)CC2)ccc1Nc1ncc(Cl)c(Nc2ccccc2S(=O)(=O)C(C)C)n1 [NVP-TAE684] (first compound 2 µM, partner dose 0.4 µM), the cell count [1] was 50.6%, the cell count [2] was 81.3% and the cell count [3] was 71.5%. For the same molecule, the cell count [4] was 78.4%.

In the case of `Cc1ccc(NC(=O)c2cccc(N(C)C)c2)cc1NC(=O)c1ccc(O)cc1` + NCC(=O)Nc1ccc(-n2nc(C(F)(F)F)cc2-c2ccc3c(ccc4ccccc43)c2)cc1 [OSU03012] (first compound 10 µM, partner dose 5 µM), the cell count [2] is reported as 82.7%, the cell count [3] is reported as 93.2% and the cell count [4] is reported as 37.7%.

With `CN(NC(=O)CC(=O)NN(C)C(=S)c1ccccc1)C(=S)c1ccccc1` + COc1ccc(-c2ccc3c(N4CCOCC4)nc(N4C[C@@H](C)O[C@@H](C)C4)nc3n2)cc1CO [KU0063794] (first compound 0.03 µM, partner dose 0.1 µM) the cell count [1] was 4.96%, the cell count [2] was 62.6% and the cell count [3] was 16.4%. It also gave a cell count [4] of 95.4%.

`CCCCCCCCc1ccc(CCC(N)(CO)CO)cc1` [fingolimod] + Cc1ccc(NC(=O)c2cccc(N(C)C)c2)cc1NC(=O)c1ccc(O)cc1 [ZM336372] (first compound 10 µM, partner dose 10 µM) gave a cell count [2] of 5.22%, a cell count [3] of 2.54% and a cell count [4] of 43.6%.

Molecule `Cc1ccc(NC(=O)c2cccc(N(C)C)c2)cc1NC(=O)c1ccc(O)cc1` + COC(=O)c1sccc1S(=O)(=O)Nc1ccc(Nc2ccccc2)cc1OC [GSK0660] (first compound 10 µM, partner dose 5 µM) has a cell count [1] of 74%, a cell count [2] of 92.5% and a cell count [3] of 83%. The cell count [4] was 81%.
